# From the supplement of paper PMC3334620
# The full ranking holds about 33,000 sequences; the median of “E-score (-0.5 to 0.5)” is about -0.012, and the highest 2% start at about 0.29. The list shows a part of the results.
# Target: T1, Ybr033w (UniProt P38073)
# T1 sequence: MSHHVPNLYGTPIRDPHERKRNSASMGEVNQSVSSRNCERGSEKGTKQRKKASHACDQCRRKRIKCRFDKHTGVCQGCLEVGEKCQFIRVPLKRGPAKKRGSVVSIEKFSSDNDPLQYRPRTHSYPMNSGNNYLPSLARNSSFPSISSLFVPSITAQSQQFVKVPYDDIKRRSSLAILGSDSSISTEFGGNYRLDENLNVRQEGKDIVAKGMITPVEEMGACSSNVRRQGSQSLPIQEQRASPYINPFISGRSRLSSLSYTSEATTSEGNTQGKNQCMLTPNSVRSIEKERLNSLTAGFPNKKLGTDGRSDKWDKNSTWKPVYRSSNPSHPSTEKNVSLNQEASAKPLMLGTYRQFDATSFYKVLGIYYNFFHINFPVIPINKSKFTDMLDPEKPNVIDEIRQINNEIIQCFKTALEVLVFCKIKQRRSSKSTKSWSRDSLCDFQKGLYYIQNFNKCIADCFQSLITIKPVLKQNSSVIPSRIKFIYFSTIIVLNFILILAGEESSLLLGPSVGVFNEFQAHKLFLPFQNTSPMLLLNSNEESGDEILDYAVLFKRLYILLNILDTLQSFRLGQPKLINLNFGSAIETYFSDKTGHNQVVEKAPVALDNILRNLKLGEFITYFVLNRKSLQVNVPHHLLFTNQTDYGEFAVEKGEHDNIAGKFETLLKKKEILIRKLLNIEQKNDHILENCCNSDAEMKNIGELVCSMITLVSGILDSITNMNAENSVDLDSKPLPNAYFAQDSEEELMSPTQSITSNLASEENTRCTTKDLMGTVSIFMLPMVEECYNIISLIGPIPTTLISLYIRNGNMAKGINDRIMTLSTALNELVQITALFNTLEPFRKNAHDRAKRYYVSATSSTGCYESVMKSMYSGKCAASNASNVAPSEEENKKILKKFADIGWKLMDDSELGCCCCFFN
# Assay: PBM E-score (8-mer binding enrichment) (E-score (-0.5 to 0.5)); higher = stronger / more preferred TF binding; most listed sequences are background and not binding sites
# Conditions: protein concentration: 200 nM; construct: GST-full length
# In short: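 PURExpress in vitro transcription/translation supplied GST-tagged yeast transcription factors, either full-length or DNA-binding domain. Applied at about 100-200 nM to universal all-10-mer Agilent arrays double-stranded by primer extension, the bound protein was detected with fluorescent anti-GST. E-scores, modified Wilcoxon-Mann-Whitney statistics, were given by the Universal PBM Analysis Suite to ungapped eight-base words pooled with their reverse complements after masliner normalisation.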
row,Sequence,PBM E-score
1,AAGGAAGT,0.0991
2,ATCTTGTG,0.0678
3,CCCCGGCC,-0.396
4,CATAACCG,-0.168
5,CGCCTCGA,-0.0514
6,ATCCTCAG,0.0112
7,AACAAAGC,0.276
8,ACGCGAGG,-0.0988
9,AAGCGGTA,-0.00899
10,CCTCTATC,-0.04
11,CTCATCAG,0.0236
12,GCTTCACC,-0.155
13,TCTCCCAA,-0.0885
14,ATGTTTAG,0.149
15,AGGATTTA,0.228
16,AGGACCGA,0.0449
17,CAGCGTGA,-0.171
18,AGTGTCAT,0.115
19,AAGATAAA,0.257
20,ATACCCAC,0.0343
21,ATTCGACG,0.156
22,AGTGTGGA,0.145

row,Sequence,PBM E-score
1,TATTCAAA,0.155
2,GACGAAAC,-0.0385
3,ACATTCCC,0.0614
4,GCGCGCGA,0.111
5,ACAGATGT,-0.0123
6,AGTCGACT,0.204
7,ACTTGGAG,-0.0202
8,ACTATGGC,-0.0489
9,AGGTTTGC,0.0859
10,GGTGCGCA,-0.0323
11,TGGGAGAA,-0.0262
12,ACATCCGC,-0.0234
13,ATCAGCCG,-0.0949
14,ACTCCCAG,-0.191
15,ACAGGAGA,-0.0122
16,CATCCGAC,0.0138
17,ACAGGATG,0.0872
18,ATAAGGAA,0.0859
19,GGGATTAA,0.411
20,AGAAATCT,0.203
21,GACATGCC,-0.176
22,GTCATCTA,0.00626

row,Sequence,PBM E-score
1,GTGTTGCA,0.0272
2,AGCCCTAC,-0.0737
3,CTATTAAC,0.268
4,CAATAGCG,-0.00568
5,ACACATTG,0.0863
6,CGCTGTAA,0.0392
7,ACGAACAT,0.151
8,ATTTTCGG,0.161
9,TTATACAA,0.263
10,ATTGACTG,-0.0296
11,CATCTCCA,-0.00049
12,CCGGGACG,-0.191
13,ACTCCCAT,-0.00516
14,GGCCTCCC,-0.219
15,AGAATTCA,0.116
16,CTTCTGGA,0.0505
17,ACTGCAGT,-0.218
18,TGCTTCCA,-0.105
19,AGGGCCAG,-0.163
20,GTGAGCAA,-0.0113
21,GCGATGCC,-0.295
22,CCCCTCAC,-0.134

row,Sequence,PBM E-score
1,GAGTCAGC,-0.162
2,CCTAGGAC,-0.087
3,GGAACTTA,0.15
4,AGACATGA,0.0107
5,GCTTCTGA,-0.0755
6,GCTACGCA,-0.00233
7,ATTCACAC,0.0769
8,AAGAGCGT,0.00139
9,AAGATAGG,0.00494
10,AAGGCCCG,-0.138
11,ATTGGGGC,-0.0872
12,AGCATATG,0.0436
13,ACAAATCG,0.145
14,AGATAGAA,0.0422
15,ATCAACAG,0.269
16,CTTATCGA,0.215
17,TAAACCCA,0.169
18,CATGAGGC,-0.227
19,GTCTATAA,0.163
20,ACACTATA,0.238
